Where “and” joins values, the source holds several entries; their conditions need not be identical. Equal values may be shown once. Hit rate of the full screen: of about 390,000 compounds, about 4,000 (1%) were called active. The inconclusive results got no clear call from the source; some entries with a clear call stand among them for comparison. Calls follow the shape of the dose curve; as a rule, active = well fitted inhibition curve with a large enough effect; inconclusive = small, poorly fitted or top-dose-only effect; inactive = no such curve, though single readings can be large or run the other way. A potency beside an inconclusive call is a rough fit, not a confirmed value.
Molecular target: Thioredoxin reductase 1, cytoplasmic (Rattus norvegicus) (UniProt O89049)
Experiment: qHTS Assay for Inhibitors of Mammalian Selenoprotein Thioredoxin Reductase 1 (TrxR1): qHTS; also: nearly all actives have a fitted effect of over 65% in size
Details: recombinant rTrxR1, NADPH fluorescence consumption, selenite substrate; series mostly up to 114 µM; activity change, negative = inhibition: at the top concentration
Procedure, shortened: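 Rat TrxR1 (90 nM in the dispensed reagent) was pre-reduced with 400 uM NADPH for 5 min at room temperature, then incubated with compound for 15 min. After 400 uM selenite was added, NADPH fluorescence (Ex 340/Em 450 nm) was followed for 8 min.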
% is scaled to controls: 0 for no effect and ±100 for the full control effect; potency is read from the fitted curve at half-maximal effect; tags tell the direction and shape of the fitted curve.

UniProt O89049, sequence (O89049 whole entry, looked up): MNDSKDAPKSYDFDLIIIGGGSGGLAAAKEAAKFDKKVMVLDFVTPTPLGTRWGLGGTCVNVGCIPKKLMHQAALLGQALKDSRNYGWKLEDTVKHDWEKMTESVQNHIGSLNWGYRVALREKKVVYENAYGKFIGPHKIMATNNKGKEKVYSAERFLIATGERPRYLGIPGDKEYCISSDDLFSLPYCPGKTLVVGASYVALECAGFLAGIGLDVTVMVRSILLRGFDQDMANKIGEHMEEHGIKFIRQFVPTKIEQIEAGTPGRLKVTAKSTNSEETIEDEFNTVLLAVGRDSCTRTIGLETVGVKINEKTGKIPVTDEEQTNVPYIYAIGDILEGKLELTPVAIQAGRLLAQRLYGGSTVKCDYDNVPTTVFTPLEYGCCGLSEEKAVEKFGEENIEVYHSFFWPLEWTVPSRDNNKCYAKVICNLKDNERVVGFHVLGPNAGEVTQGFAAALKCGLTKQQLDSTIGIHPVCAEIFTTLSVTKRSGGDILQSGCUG

Row | Compound | Potency | activity change, negative = inhibition
1 | O=C(Cc1cccc2ccccc12)NNC(=O)c1ccc(Br)o1 | inconclusive: 50.1 µM [inhibitor, partial curve] | –
2 | O=C1N(Cc2cccc(Cl)c2)C[C@@H]2C[C@@H](c3ccc4nonc4c3)N3CCC[C@@]123 | inconclusive: 20 µM [inhibitor, partial curve] | –
3 | CCOc1ccc(C(C)=O)cc1COC(=O)c1ccc2c(c1)NC(=O)CS2 | inconclusive: 44.7 µM [inhibitor, partial curve] | –
4 | CC(C)[C@H](NC(=O)[C@H]1N2C(=O)c3ccccc3C2SC1(C)C)C(=O)NCc1ccco1 (stereo partly drawn) | inconclusive: 44.7 µM [inhibitor, partial curve, poor fit] | –
5 | O=C(NCc1ccccc1)C(c1ccc(O)cc1)N(C(=O)c1cnccn1)c1ccccc1 (stereo not drawn) | – | inactive: -6.08% [at 57.1 µM]
6 | C/C(CC(=O)Nc1cccnc1)=N\NC(=O)C(=O)Nc1cccc(C)c1 | inconclusive: 35.5 µM [inhibitor, partial curve] | –
7 | O=C1N(c2ccccc2)C[C@@H]2C[C@@H](c3cccs3)N3CCC[C@@]123 | active: 20 µM | –
8 | O=C(NCCc1ccc(Cl)cc1)c1nnc(Cc2ccc(F)cc2)o1 | – | inactive: -1.51%
9 | O=C(O)C1CCCN(CCC=C(c2ccccc2)c2ccccc2)C1 (stereo not drawn) | inconclusive: 44.7 µM [inhibitor, single point] and inconclusive: 37.7 µM [inhibitor, single point] and inconclusive: 39.8 µM [inhibitor, single point] | –
10 | CCc1ccc(NC(=O)CN2CCN(C3CCCCC3)C(=O)C2=O)cc1 | – | inactive: 3.23% [at 57.1 µM]
11 | Cc1ccc(Nc2nc(N)nc(CN3CCCCCC3)n2)cc1 | inconclusive: 28.2 µM [inhibitor, partial curve, poor fit] | –
12 | CC(Sc1ccsc1[N+](=O)[O-])C(=O)NCCc1ccc(Cl)cc1 (stereo not drawn) | inconclusive: 89.1 µM [inhibitor, single point] | –
13 | CCc1cc(C(=O)NNC(=S)Nc2cc(C)ccc2C)cs1 | – | inactive: -19.8%
14 | COc1cc(C2C(=O)N(C3CCCCCC3)CC(=O)N2Cc2ccccc2)ccc1OC(C)C (stereo not drawn) | – | inactive: 8.58% [at 57.1 µM]
15 | CCCN(CCC)CCCNC(=O)c1cn(CCOC)c(=O)c2c1c1ccccc1n2C | inconclusive: 39.8 µM [inhibitor, partial curve] | –
16 | O=C1NC(=S)S/C1=C\C=C\c1ccc([N+](=O)[O-])o1 | active: 10 µM | –
17 | CC(=O)Nc1cccc(NC(=O)CSc2ccc(-c3ccccn3)nn2)c1 | – | inactive: 14% [at 57.1 µM]
18 | O=C(c1ccco1)N1CCN(c2cc(=O)n(C3CCCCC3)c(=O)[nH]2)CC1 | inconclusive: 50.1 µM [inhibitor, partial curve, poor fit] | –
